The other results are listed elsewhere or left out.

In this test the target is T1, OsWOX13 (Oryza sativa, UniProt Q5QMM3 1-267).
T1 sequence: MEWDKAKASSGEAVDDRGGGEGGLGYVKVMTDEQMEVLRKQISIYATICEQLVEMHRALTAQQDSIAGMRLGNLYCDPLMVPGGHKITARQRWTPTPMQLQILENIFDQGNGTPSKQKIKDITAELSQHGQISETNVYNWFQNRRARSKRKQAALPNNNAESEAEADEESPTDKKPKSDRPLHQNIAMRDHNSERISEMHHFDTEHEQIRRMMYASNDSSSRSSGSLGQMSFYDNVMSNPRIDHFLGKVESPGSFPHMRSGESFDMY
Nature of the test: protein-binding microarray (RPBM); PBS, 2% BSA, 51.3 ng/ul salmon testes DNA, 50 uM zinc acetate, 200 nM TF, 25 C, 1 h; high values mean tight binding. Conditions: protein: recombinant; tags: N-terminal polyhistidine and DsRed monomer fusion (pET32a); label: CyDye5-dUTP incorporated in the synthesized complementary strand; 3' TTTTT single-stranded linker to array surface; dsDNA, one strand shown. The essentials: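 The binding signal for each feature is its fluorescence intensity in arbitrary units. An Axon 4000B scanner was used to read a custom Agilent array that had been made double-stranded with Cy5-dUTP primer extension, blocked with 2% BSA, incubated at 25 °C for 1 h with 200 nM protein in PBS, 2% BSA, salmon testes DNA and 50 µM zinc acetate, and washed. The protein was an N-terminal polyhistidine–DsRed transcription factor fusion from E. coli BL21-CodonPlus, purified on Ni–NTA.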
For “GGTAATATTTTGATTAAATTTGACTAAATTTTGTTTAAAACGGAGTCACCTAGTGCAG”, the binding signal was 11800 fluorescence intensity (a.u.). Consider “TCGATGATGATTGATGGATTGATTTTGAGAACTCGAAGGACGGAGTCACCTAGTGCAG”, for which the binding signal was 44700 fluorescence intensity (a.u.).

For the sequence “GTTTTGTGTTAAATTTATTGTTAAATCTGTAGTTTTGCGACGGAGTCACCTAGTGCAG”, the binding signal was 4120 fluorescence intensity (a.u.). Take “CTAATTATACTTAAATCATAATGTTATAATATATGGATAACGGAGTCACCTAGTGCAG”: the binding signal is 15600 fluorescence intensity (a.u.). To “CATCCATCAATCCCTGAATGCACACAAGCTGCATATCTGCCGGAGTCACCTAGTGCAG” belongs 4610 fluorescence intensity (a.u.).

Consider “GTTAACCGCCAATTAAAGCTTCCGATCGATTCACATCCTTCGGAGTCACCTAGTGCAG”, for which the binding signal is 19900 fluorescence intensity (a.u.).

Take “CACTAATTATTATTAGTTAATTAAGTAATTAAGCACTAGCCGGAGTCACCTAGTGCAG”: the binding signal is 41300 fluorescence intensity (a.u.). In the case of “AACCCATGATTTTGTTACAGCAAACATAAGGTTGAATCTTCGGAGTCACCTAGTGCAG”, the binding signal is 4010 fluorescence intensity (a.u.). As for “ATACGGGTTGATTGGGACACCAGTACACCACTGGTGCACCCGGAGTCACCTAGTGCAG”, the binding signal is 20100 fluorescence intensity (a.u.). To “CAGTGGATGATTAATATTGATTAATTATTATAATTGTTTTCGGAGTCACCTAGTGCAG” belongs 39500 fluorescence intensity (a.u.).

For the sequence “GTGACCATGACTAATTACCGCAATGAAAACCAAAACCGAGCGGAGTCACCTAGTGCAG”, the binding signal was 9180 fluorescence intensity (a.u.). To “AATAAAATAGCAGTTAAATGAATGAACAACAGTCAAACTGCGGAGTCACCTAGTGCAG” belongs 3350 fluorescence intensity (a.u.); to “ATTCATGATGGATTTAATGATGAAATCAATCGGATGTTACCGGAGTCACCTAGTGCAG”, 15900 fluorescence intensity (a.u.). To “GGGCGATCATCTATAAATTAACAACGGCCGAGATATAGACCGGAGTCACCTAGTGCAG” belongs 6120 fluorescence intensity (a.u.); to “CCCTAATTAACTATACTCTACTAATTAAGCTACCCAACCACGGAGTCACCTAGTGCAG”, 39900 fluorescence intensity (a.u.). With “ATAATTGACTTATTATACTACTTCCTCCGTTTCACAATGTCGGAGTCACCTAGTGCAG” the figure was 29900 fluorescence intensity (a.u.). “GCAGAATAATTAAACCATAGACACATACATAATAATACCACGGAGTCACCTAGTGCAG”: the binding signal was 6120 fluorescence intensity (a.u.). In the case of “GATATTACAAAAGTCCTAATTGATTTCTTTTACATTGATTCGGAGTCACCTAGTGCAG”, the binding signal is 7300 fluorescence intensity (a.u.). With “TCCAATTAAGGAGCAATTAAGGAGGAGAAGGAAGGGAAAACGGAGTCACCTAGTGCAG” the figure was 4860 fluorescence intensity (a.u.). As for “GTCGAAATTAGCTAATACATATGTATTGGGTTAGGCATGGCGGAGTCACCTAGTGCAG”, the binding signal is 9300 fluorescence intensity (a.u.). With “GTTGTAATTAAATCTTTACAACAAGATCAGACATGATTATCGGAGTCACCTAGTGCAG” the figure was 6600 fluorescence intensity (a.u.); with “AAAACTAATTACACAGTTTGCATGAAAATCGCGAGACGAACGGAGTCACCTAGTGCAG”, 10500 fluorescence intensity (a.u.); with “TATAGCTCCTTATTGACAGGATGATTTCTTGCCTCGGACACGGAGTCACCTAGTGCAG”, 8700 fluorescence intensity (a.u.). As to “TTGCTAGATGATAAAACATGATTAATATTTTATACGTGACCGGAGTCACCTAGTGCAG”, the binding signal is 8500 fluorescence intensity (a.u.). With “ATCATCCTGATTAGTGCAATTTACCATCATTATTGTGTTGCGGAGTCACCTAGTGCAG” the figure was 25900 fluorescence intensity (a.u.); with “AATAAATAAATTTAATATCGAAGTATTTGGCAAATTTCCCCGGAGTCACCTAGTGCAG”, 9100 fluorescence intensity (a.u.); with “TAACTTATTAATTGAACTTGTTAGACATAAGGGGTGACAACGGAGTCACCTAGTGCAG”, 16400 fluorescence intensity (a.u.).

Consider “GGTGTTTGATTGGAGAGATTAAAGTGGGGCTAAACTTTATCGGAGTCACCTAGTGCAG”, for which the binding signal is 19300 fluorescence intensity (a.u.). Turning to “TCTAGATTATGATCAAATAAGATAGGAGCACCACCAAATACGGAGTCACCTAGTGCAG”, the binding signal was 3520 fluorescence intensity (a.u.). To “CTTGAAGTGGCTAATTAACAAGTTTGTTTTCAGTTAGCATCGGAGTCACCTAGTGCAG” belongs 7120 fluorescence intensity (a.u.); to “CTTTTGAGCCTAATTAGTCCATGATTAGTTATAAGTGCTACGGAGTCACCTAGTGCAG”, 19200 fluorescence intensity (a.u.). To “GCAATCCTAACAGGCCCATTTAATTTTGAAGCCTGGTCCACGGAGTCACCTAGTGCAG” belongs 4290 fluorescence intensity (a.u.).

Consider “TCCATATGTCAATTGAGTCTTTTACTGAAGAATCCTAGGACGGAGTCACCTAGTGCAG”, for which the binding signal was 3300 fluorescence intensity (a.u.). With “CATGATTAGCAGTTTAGCGCCATTACTATTCCTAGCACAACGGAGTCACCTAGTGCAG”, the binding signal is 45100 fluorescence intensity (a.u.).

Regarding “TTAGCCTAATTAGTCCATGATTAGCCGTAAGTGTCACAGTCGGAGTCACCTAGTGCAG”, the binding signal is 28900 fluorescence intensity (a.u.). To “TTAAAATTAAATTACGGCATCATCAAGCCTATATATCACCCGGAGTCACCTAGTGCAG” belongs 19700 fluorescence intensity (a.u.); to “ATATAAATTAATATGTGATAGATCACATGAACATTTCATACGGAGTCACCTAGTGCAG”, 42700 fluorescence intensity (a.u.). Turning to “TTTGACAGAGCTTAGTGGAGACGCCATAGCCATGCACCATCGGAGTCACCTAGTGCAG”, the binding signal is 4650 fluorescence intensity (a.u.).

Consider “ATTACGTAATTAATTAAAATACAAATTTCAGCATCCTTACCGGAGTCACCTAGTGCAG”, for which the binding signal is 42300 fluorescence intensity (a.u.). With “TTTAATTGAACTTGAGTGGTCCAGGTATTAAATGTGGGTCCGGAGTCACCTAGTGCAG” the figure was 52200 fluorescence intensity (a.u.); with “ATTATGTTTATTGATTGGACGGAAAATTTCCCATTTTAATCGGAGTCACCTAGTGCAG”, 29300 fluorescence intensity (a.u.). As to “CCTGCATCATCAATCTGCCTACATATCGATCGATTGATCTCGGAGTCACCTAGTGCAG”, the binding signal was 4630 fluorescence intensity (a.u.).

The values above are taken from paper PMC7819943, “Rice protein-binding microarrays: a tool to detect cis-acting elements near promoter regions in rice”.
